# According to PubChem BioAssay AID686979 (National Center for Advancing Translational Sciences (NCATS), 2013):
# Several values for one entry are separate records, joined by “and”; a condition that tells them apart may be missing. Identical values can stand only once. Among all 420,000 compounds or so, about 50,000 (12%) were called active. This list was built around the results that the source calls inconclusive (neither active nor inactive); the mix of calls is not that of the screen. The call rests on the fitted dose curve; in most records, active means well fitted inhibition curve with a large enough effect; inconclusive means small, poorly fitted or top-dose-only effect; inactive means flat fitted curve, though single readings scatter. Potencies of inconclusive entries are left out as doubtful fits.
# Experiment: qHTS for Inhibitors of human tyrosyl-DNA phosphodiesterase 1 (TDP1): qHTS in cells in presence of CPT; further: nearly all actives have a fitted effect of over 55% in size
# Settings: chicken DT40 Tdp1-/-;hTDP1 cells + 20 nM CPT, ATP luminescence, 48 h; activity change, negative = growth inhibition: at 46.2 µM (top of the series) unless noted
# In short: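 Chicken DT40 Tdp1-/- cells stably complemented with human TDP1 were seeded at 400 cells/well in medium containing 20 nM camptothecin, exposed to pin-transferred compounds, and grown at 37 °C for at least 48 hr. Viability was read as ATP luminescence.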
# On the % scale 0 is the no-effect control and ±100 the full control effect; potency means the concentration at half of the fitted maximal effect; tags describe the fitted curve by direction and shape.
Structure (SMILES),Potency,"activity change, negative = growth inhibition"
CCc1cccc(C)c1NC(=O)C1CC=CCC1C(=O)O (stereo unspecified),"inconclusive [inhibitor, single point]",
CCCCCCC(=O)Nc1nc(C)c(-c2csc(Nc3ccc(Cl)cc3)n2)s1,active: 2.31 µM,
COc1cccc(OC)c1C(=O)Nc1ccc(N2CCN(C(=O)c3cccs3)CC2)cc1,,inactive: -22.5%
O=S(=O)(c1ccc(Cl)cc1)c1nc(-c2ccccc2Br)oc1NCc1ccccc1,"inconclusive [inhibitor, single point]",
Cc1ccc(S(=O)(=O)N2CCOCC2)cc1NC(=O)c1ccncc1,,inactive: -10.9%
Cc1c(C(=O)NNC(=O)c2cccnc2)cccc1[N+](=O)[O-],,inactive: 1.87%
O=C(c1ccc(Br)o1)N1CCN=C1SCc1cccnc1,,inconclusive: -32.7% [inhibitor]
O=C(N/N=C/c1c[nH]c2ccc(Br)cc12)c1ccc2c(c1)OCO2,"inconclusive [inhibitor, single point]",
Cc1cc(C)c(NC(=O)CSc2nc3ccccc3c3nc(CCn4cncc4C)nn23)c(C)c1,active: 13 µM,
Oc1ccc(/C=N/N2CCN(C3c4ccccc4-c4ccccc43)CC2)cc1,,inactive: -11.3%
COc1cccc(CNc2nc(NC(C)C)nc3ccsc23)c1,active: 23.1 µM,
CC(=O)N1CCN(c2ccccc2NC(=O)COc2ccccc2C)CC1,"inconclusive [inhibitor, single point]",
CCN1CCN(C(=O)c2ccc3c(c2)N(Cc2cccc(Cl)c2)C(=O)c2ccccc2S3=O)CC1 (stereo unspecified),"inconclusive [inhibitor, single point]",
Cc1oc2c(F)c(F)c(F)c(F)c2c1S(=O)(=O)Nc1cccc(C(F)(F)F)c1,active: 11.6 µM,
c1ccc(COc2ccc(OCCN3CCCC3)cc2)cc1,"inconclusive [inhibitor, single point]",
COc1ccc(Cl)cc1Nc1cc(C)nc2ccccc12,"inconclusive [inhibitor, single point]",
COc1ccc(CCNC(=O)CSc2nc3nc(C)c(Cc4ccc(C)cc4)c(C)n3n2)cc1OC,"inconclusive [inhibitor, single point]",
Cc1cccc(C(C)C)c1NC(=O)CN(C)Cc1cccc(F)c1,"inconclusive [inhibitor, single point]",
O=C(NCCCNC(=O)c1ccc(F)cc1)c1ccc(F)cc1,,inactive: 0.747%
Cc1ccc(C)c(N2CCN(S(=O)(=O)c3c(C)noc3C)CC2)c1,"inconclusive [inhibitor, single point]",
CCOc1ccc2nc(N3CCN(C(=O)c4ccc(S(=O)(=O)CC)cc4)CC3)sc2c1,active: 18.4 µM,
Cc1cnc(SCC2CCCO2)nc1C1CCCN(Cc2cc3c(cc2Cl)OCO3)C1 (stereo unspecified),"inconclusive [inhibitor, single point]",
COC(=O)c1cc(OC)c(OC)cc1NC(=O)CCCCCN1C(=O)CCC1=O,"inconclusive [inhibitor, partial curve]",
CSc1nsc(SC)c1-c1ccc(Cl)cc1,,inactive: -24%

Structure (SMILES),Potency,"activity change, negative = growth inhibition"
CCCCOCCCNC(=O)C[C@@H]1C[C@@]2(C(=O)OC)CC(C)(C)CC=C2N(CCc2ccc(OC)c(OC)c2)C1=O,"inconclusive [inhibitor, single point]",
Cc1ccc(N(CC(=O)Nc2cccc(Cl)c2C)S(=O)(=O)c2c(C)noc2C)cc1,"inconclusive [inhibitor, single point]",
COc1ccc(CNC(=O)CS(=O)Cc2nc(-c3ccc(OC)c(OC)c3)oc2C)cc1 (stereo unspecified),"inconclusive [inhibitor, single point]",
CCn1c(C)c(C)c2cc(C(=O)NCCCN3CCCCC3C)ccc21 (stereo unspecified),"inconclusive [inhibitor, single point]",
C=C(CC)C(=O)c1ccc(OCC(=O)O)c(Cl)c1Cl,active: 17.8 µM and active: 16.8 µM,
CN1CCN(c2ccc(C(=O)c3ccc(Br)cc3)cc2[N+](=O)[O-])CC1,"inconclusive [inhibitor, single point]",
Cc1cccc(Oc2nc3ccccn3c(=O)c2/C=C(\C#N)C(=O)NC2CCS(=O)(=O)C2)c1C (stereo unspecified),"inconclusive [inhibitor, partial curve]",
Cc1csc(NC(=O)CCCNC(=O)c2ccc(Cl)cc2)n1,,inactive: -2.46%
Cc1cccc(NC(=O)Nc2nnc(-c3ccccc3)o2)c1,"inconclusive [inhibitor, single point]",
CN(Cc1ccccc1)C(=O)c1ccccc1C(=O)OCC(=O)N(Cc1ccccc1)C(C)(C)C,active: 23.1 µM,
Cc1ccc2c(c1)c1nc3ccccc3nc1n2C,"inconclusive [inhibitor, partial curve]",
Cc1ccc2nc(-c3ccc(Cl)s3)c(Nc3ccc4c(c3)OCCO4)n2c1,"inconclusive [inhibitor, single point]",
O=C(OCc1ccccc1)/C(=C/c1cccc([N+](=O)[O-])c1)NC(=O)c1ccco1,"inconclusive [inhibitor, single point]",
COC(=O)CCCCC1SCC(NC(=O)OC)C1NC(=O)OC (stereo unspecified),,inactive: -6.15%
Cc1cccc(Nc2nnc(SCC(=O)NCC3CCCO3)s2)c1C (stereo unspecified),"inconclusive [inhibitor, single point]",
COc1cccc(-n2c(SCc3ccc(F)cc3)nc3c([nH]c4ccccc43)c2=O)c1,"inconclusive [inhibitor, single point]",
Cc1cc2ccccn2c1C(=O)c1ccncc1,,inactive: -9.46%
Cc1ccc(NC(=O)COc2ccccc2)cc1S(=O)(=O)N1CCCCCC1,"inconclusive [inhibitor, single point]",
COc1ccc(Cn2ccnc2SCC(=O)Nc2nnc(C)s2)cc1,inactive,
O=c1nc(N2CCCCC2)nc(Nc2ccccc2)[nH]1,"inconclusive [inhibitor, single point]",
CCCN(CCC)CC(O)CN(c1ccccc1)S(=O)(=O)c1ccc(C)cc1 (stereo unspecified),"inconclusive [inhibitor, single point]",
CC1CCCCN1c1nnc(NC(=O)c2cc(-c3ccc(Br)cc3)on2)s1 (stereo unspecified),"inconclusive [inhibitor, partial curve, poor fit]",
O=C(NN1C(=O)C2C3c4ccccc4C(c4ccccc43)[C@@H]2C1=O)c1ccccc1 (stereo partly specified),,inactive: -13.3%
CCN(CC)CCCNC(=O)c1cn(C)c2ccc(S(=O)(=O)N(C)C)cc2c1=O,,inactive: 1.94%

Structure (SMILES),Potency,"activity change, negative = growth inhibition"
CCOC(=O)c1[nH]c(Cc2[nH]c(C(=O)OCC)c(C)c2CCC(=O)OC)c(CCC(=O)OC)c1C,"inconclusive [inhibitor, single point]",
CCOc1ccc(Oc2ccccc2NS(=O)(=O)c2ccc(CCC(=O)O)cc2)cc1,"inconclusive [inhibitor, single point]",
Cc1ccc(CNC(=O)c2ccc(N3CCCC3)c(NC(=O)Nc3ccc(F)c(Cl)c3)c2)cc1,,inactive: -2.3%
Cc1c(F)cccc1NS(=O)(=O)c1ccc(OCCNS(C)(=O)=O)cc1,"inconclusive [inhibitor, partial curve]",
Cc1ccc2c(c1)-c1c(c(C(=O)N3CCN(c4cc(C)ccc4C)CC3)nn1C)CS2,"inconclusive [inhibitor, single point]",
CCOC(=O)C1CCN(C(=O)C2CCN(c3nn4c(=O)cc(C)nc4s3)CC2)CC1,,inactive: -15.1%
Cc1ccc(Cl)cc1NC(=S)N(CCN(C)C)C(C)c1ccccn1 (stereo unspecified),,inactive: 1.16%
CCc1ccc2c(CN3CCc4cc(OC)c(OC)cc4C3)cc(=O)oc2c1,"inconclusive [inhibitor, single point]",
CCn1c(=O)cc(OCC(=O)N2CCN(c3cccc(C)c3C)CC2)c2ccccc21,active: 9.2 µM,
C[C@H](O)Cc1cc2ccccc2c(=O)o1,,inactive: -3.67%
Cc1cccc(NC(=O)CN2C(=O)C(c3ccc(F)cc3)=NC23CCCCCC3)c1,"inconclusive [inhibitor, single point]",
CC(=O)N(C)c1cccc(-c2ccc3nnc(C)n3n2)c1,,inactive: -20%
CCN(CCCNC(=O)c1nn(-c2ccc(C)cc2)c(=O)c2c1c1ccccc1n2C)c1cccc(C)c1,,inactive: -26.9%
CCCNC(=O)COc1ccc(-c2nn(C)c(=O)c3ccccc23)cc1,"inconclusive [inhibitor, single point]",
Cc1cc(C)c(NC(=O)Cn2c(=O)n(Cc3ccc(C(=O)NCc4ccc5c(c4)OCO5)cc3)c(=O)c3ccccc32)c(C)c1,active: 6.51 µM,
CCCCC[C@@H](/C=C/C1C(=O)C=C[C@H]1C/C=C\CCCC(=O)OC)OC(C)=O (stereo partly specified),active: 9.2 µM,
CN(C)C(=O)CSc1nnc(-c2cccnc2)n1-c1ccccc1,,inactive: 0.0598%
Cc1ccc(CNC(=O)C(C)n2nc(C)c3sc4ccccc4c3c2=O)cc1 (stereo unspecified),"inconclusive [inhibitor, partial curve]",
CNCCNS(=O)(=O)c1cccc2cnccc12,active: 18.4 µM,
O=C(CSc1ncnc2scc(-c3ccccc3)c12)N1CCN(Cc2ccc3c(c2)OCO3)CC1,"inconclusive [inhibitor, single point]",
O=C(NCc1ccco1)c1cnn2c(C(F)(F)F)cc(-c3cccs3)nc12,active: 14.6 µM,
CCC(CCC(=O)NNC(=O)Cc1ccc([N+](=O)[O-])cc1)C(=O)O (stereo unspecified),,inactive: 3.63%
C=CCN1C2CCCC1CC(NC(=S)Nc1cccc(OC)c1)C2 (stereo unspecified),"inconclusive [inhibitor, single point]",
